Test results published in the supplement of paper PMC12632987.
Whole data set: some 1,800 sequences, median “median log2 fold change of GCK-ALFA target abundance (FLAG IP / Myc IP barcode read proportion)” near 0.14, cut for the lowest 2% near -0.84. Some of the results follow.

T1: TRAF2, Q12933
T1 chain: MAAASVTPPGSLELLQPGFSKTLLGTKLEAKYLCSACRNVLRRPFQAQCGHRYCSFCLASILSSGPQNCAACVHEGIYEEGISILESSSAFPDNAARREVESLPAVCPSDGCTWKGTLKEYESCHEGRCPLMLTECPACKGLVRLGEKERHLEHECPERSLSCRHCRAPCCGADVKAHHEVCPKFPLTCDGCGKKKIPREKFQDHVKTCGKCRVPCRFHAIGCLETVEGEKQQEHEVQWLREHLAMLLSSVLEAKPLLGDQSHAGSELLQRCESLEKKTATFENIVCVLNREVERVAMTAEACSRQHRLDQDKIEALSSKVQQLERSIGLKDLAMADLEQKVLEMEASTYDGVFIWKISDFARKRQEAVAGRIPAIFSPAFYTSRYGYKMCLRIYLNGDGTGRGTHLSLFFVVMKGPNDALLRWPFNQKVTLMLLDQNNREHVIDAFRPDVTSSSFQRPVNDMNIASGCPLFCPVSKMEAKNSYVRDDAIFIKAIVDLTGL

B1: traf2_out_17_162_1651 (protein)
chain: SALEEEKKRLEEELKRLREETKRLREKLKKIEEYSKEELSDLIVEASEVKRRALEALQEIDKLEPLLDPEEAERLKKELEEIIKEAQRIAQEFLDEYEKK
B2: traf2_out_6_3_2527 (protein)
chain: SHMSLLEDARTVLENMGITTAEQLLRLVKAEVNAVKKLVSRKDVNEADLAGARSVLNLTRAMVEVAAEELPSVTPEQVAEALALIDEAEKLVEEKEKELK
B3: traf2_out_17_178_1710 (protein)
chain: SKAEARATISAATDRMIDLAEAAAAELLAIAEAEGDLSPEELAELRRARRLGSARTTLALMRRAIPKLKSAERVQALLDRFEAEYAALAKEIAAALEKYE
B4: traf2_out_17_178_1657 (protein)
chain: NKEEARKKISEATDRLIDLTRATAARLLALLRADGIASPEELAALERARRLGSATTVRALLERAVPRSPRHAEVAALLDAFRAESGRLAKEIAAAYEEYE
B5: traf2_out_16_171_1428 (protein)
chain: LPPEEQARIRAEFDALARRLRERLELIRESLPAVMKELNISKEQALKSLEARAEELLAEAERFVAEHAPKVDEETRAYLEARLAELRAHAKAVIEEFRKE
B6: traf2_out_9_17_2617 (protein)
chain: SPARAALEEALLAAVEAVTAELIAEGWITPEQAQKIIDHARRLLAEGASPERVRVETIGTLASILLVDSKQSVQTANRAASRLDRALRAAEAAVAAAAAA
B7: traf2_out_16_104_1408 (protein)
chain: SAARDAEFDRIIEELEAIADELGRIANELYELMKTASPEDKEKLSDALVEASELRRRALEAAEEARRAREEGGDLAAARERLARLTAEAAAVKAKAEALK
B8: traf2_out_20_3_2122 (protein)
chain: EELEKELERELERAIRLLKEAAEISDPETAKRLEELIERLKKSRELSPEDRLVVVSEIRREVLRLAEEAARAGKTELAAILEAAADELNRAMQLLLEIAE
B9: traf2_out_13_95_1169 (protein)
chain: SEEKTKKEREIASEAFDKREAVMTDFAAKVRALIDDPEVAALMDEVVRRMNRFTLEHAAAEIKARHPEKAEEIEALAAEALAKLAAIDKETTAELNKIEE
B10: traf2_out_18_167_1879 (protein)
chain: SAELEEEYQRATDRLVELSEIRRWLLLALEALEESREAARAVLREALARLPDSEVLREALRVAEEESPEALRAFLEEKAEELQREANEAYKKLEALRKEM
B11: traf2_out_9_17_2608 (protein)
chain: TPEEEERRRDILEAAREVLERLVEEGYITEEEAEEILKKVEELLEEGKSPEEVLAEFIGMIASTLLTKSDLPLSEINKVVGRAYRELRERLAAAEARRAA
B12: traf2_out_20_3_2204 (protein)
chain: SELEEELEKRLDAAEKLLKEAQKLADPETAKTLDALIARLKASRELSYDDRLVTLSAIRAEVLALAQAAKAAGNAELAAVLEAAADELQKAMNLVYKIIE
B13: traf2_out_3_89_2283 (protein)
chain: SPELEKKIAELRKNFDTHIKGLERSTRRVAEEMLKEGASVETIKGLIDSSATALLESFEILLKEKGLPEEVRKELLAEIKKKLDATAKKLKKEVEEAAKK
B14: traf2_out_11_79_928 (protein)
chain: SEKRKKLKEELEKAKKLVEELIKKMKAGKITPEERKKMLEEILKLLQRAAQLALELGLSDVLVEISKAKRYVLLSENGDLEELEKALKYIEEALKLLEEE
B15: traf2_out_11_169_803 (protein)
chain: KEAEKNRKINDHALKLNDEAKEKLKEFALELAKKEGLDVEEIKKIFEENKNSSLSYVASKLIEYYLSLGNEDSAKKILEKYEELKDEINKKSSEFIKELE
B16: traf2_out_17_162_1573 (protein)
chain: EELERRLEELEKRLKELEKELKKFKEELPNLPKMSKEELTDKLVEVSEKKREARRLAEELRRLGEKLGEERVEKLVKRAEEIAEELNKIANEIYKEIEKK
B17: traf2_out_3_89_2294 (protein)
chain: SMEQEKKLEEMRKRMEAYLRGFERSARWVARQMVADGMSLDTIRGVLEAARTALLEVLRESAEEAGLSPEQIEELVEEARERLERIVEEVVEEARREREA
B18: traf2_out_1_33_1031 (protein)
chain: SAEIERKSMALLRRTTGEMYRLLRETEEKMEKLLEEGKPAEEIEKLAEETRKKIKEIADKAIAELKALGDDLTADILESEKTDILKRLDEIKKEILAKLK
B19: traf2_out_20_3_2121 (protein)
chain: EELEKELKKELEKALKLLKEAAKKSDKETAKVLKELIKELKASEKLSPSDRLVVVSEIRRKVLELAEKARKAGDEELAKILEEAADELNKAAGLLLKIEE
B20: traf2_out_20_38_2023 (protein)
chain: SMEEEEEEKLKELVEVANKAYDEYSAKFAKWKAEGKTVEEIAEEVKKEIRELLSKAGLEEEAEILIEDVDLALKSPNAERLLIRTLARAVALVKQKELQK
B21: traf2_out_18_167_1843 (protein)
chain: EEEIEEKKRELSDKLVDLSAVRREALRALQALDTDPSRVPAELAALREEAAKVPELQPLVAAAEAALAAGDRAALRAELERLIEEAQKLMQEAYDKYEEL
B22: traf2_out_18_167_1820 (protein)
chain: SAETKARIEKLTDELVKVSEIRRLALAAIEAAETDPAAYPAALAATIEALNKVPEFKPKAKELKALPEAEKKAKLEEIAEEAQKRANELYKEREKLKKEA
B23: traf2_out_17_178_1730 (protein)
chain: TKEEILKEISEKADELLDVNRAAMAELRAIAEAEGVLTPELAARLDAVARTANLYALEEVADELIARSASADRIAALRAETTARMRELNKEIQELVEKLE
B24: traf2_out_20_38_2016 (protein)
chain: SMEEEEKKKLEELIKKAQEAYDEAEARIAALQAAGKSVEEIAAEAKKEITELLNAAGLEEEAKILVEDVDRVLDSPDALRLIARILARAKTLVFQKELQK
B25: traf2_out_11_169_847 (protein)
chain: EQEEKNRQIIDKALELEDKAKEELKKHALALAREAGLDVAEVEAIFEKHKGKSLSAIAAALIRWFREQGKEEAAAAVEAKYEELKEEINKKMTEFLKELE
B26: traf2_out_18_117_1794 (protein)
chain: EEREKIIKELKEIAEKLGKAASELGNLVLEKYEELSPEEKSAAMDVLADLSEVRRKALELIIRIEKENIPIEEAKKELKKLKEEAEKALKAAKEKIKELK
B27: traf2_out_9_108_2575 (protein)
chain: MSEEEILEEKFEKMLELVEEMLEEWDFPEELREALKASIEQAKRLYEEGEKRTAIVLLAIDAARAAYELGEEAVEELLERLEEIDPIAASAARRMVELLK
B28: traf2_out_12_50_978 (protein)
chain: SMEELEREENERFRAEADRILDARDALWAETGGDVEAFAARLLEIAKRSLEDAKLALAVARAKHSELLQKGEDTSVVAAAIDEIEAIKEELEEKRDAEEE
B29: traf2_out_11_169_870 (protein)
chain: EEAEKNRKLNDFALELNDKAKKELLEFSLELAKELGLDVEEVKAIFEKNKNSSLSAVAAALIKYFESKGEKDAAKKVLEKYEELKEKINKEFSKKLKELE

Biological target: T1, TRAF2, Q12933
Assay: median log2 fold change of GCK-ALFA target abundance (FLAG IP / Myc IP barcode read proportion) (log2 ratio); each designed protein is fused to an ALFA-tag nanobody in HEK293 cells to bring the named protein to FLAG-tagged glucokinase (GCK); Myc marks an untargeted standard; higher = target protein stabilised (more abundant)
Conditions: target protein: 3xFLAG-MCP-GCK-ALFA reporter; HEK293 landing pad (RPLP)
Summary of the method: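 Sequencing of reverse-transcribed, amplified circular RNA barcodes from anti-FLAG and anti-Myc immunoprecipitates provided the readout for an ALFA-nanobody-fused binder library recombined into HEK293 landing-pad cells. Those cells were induced with 2 μg mL^−1 doxycycline, transfected with a plasmid expressing a FLAG-tagged target and a Myc-tagged standard, and lysed after 48 h. Target abundance is the per-binder median log2 ratio of FLAG to Myc barcode read proportions. Only barcodes at a proportion of ≥10^−7 in both replicates and binders with ≥3 barcodes per replicate were kept, with a 10^−6 pseudocount added before the two replicates were pooled.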

Row | Binder | median log2 fold change
1 | B1 | 0.169
2 | B2 | -0.418
3 | B3 | -0.136
4 | B4 | -0.13
5 | B5 | 0.292
6 | B6 | -0.658
7 | B7 | 0.363
8 | B8 | 0.142
9 | B9 | 0.276
10 | B10 | 0.141
11 | B11 | 0.27
12 | B12 | -0.756
13 | B13 | 0.324
14 | B14 | 0.348
15 | B15 | 0.164
16 | B16 | -0.118
17 | B17 | -0.433
18 | B18 | 0.233
19 | B19 | 0.277
20 | B20 | -1.38
21 | B21 | 0.099
22 | B22 | 0.309
23 | B23 | 0.203
24 | B24 | 0.349
25 | B25 | -0.218
26 | B26 | -0.2
27 | B27 | -0.386
28 | B28 | 0.292
29 | B29 | 0.133
